From PubChem BioAssay AID588453 (National Center for Advancing Translational Sciences (NCATS), 2011)
Several values for one entry are separate records, joined by “and”; a condition that tells them apart may be missing. Identical values can stand only once. The campaign covered roughly 390,000 compounds. About 4,000 (1%) were called active. This list was built around the results that the source calls inconclusive (neither active nor inactive); the mix of calls is not that of the screen. Calls come from the whole dose curve; as a rule, active = well fitted inhibition curve with a large enough effect; inconclusive = small, poorly fitted or top-dose-only effect; inactive = no such curve, though single readings can be large or run the other way. A potency beside an inconclusive call is a rough fit, not a confirmed value.

Molecular target: Thioredoxin reductase 1, cytoplasmic (Rattus norvegicus) (UniProt O89049)
Sequence of UniProt O89049 (O89049 whole entry, looked up): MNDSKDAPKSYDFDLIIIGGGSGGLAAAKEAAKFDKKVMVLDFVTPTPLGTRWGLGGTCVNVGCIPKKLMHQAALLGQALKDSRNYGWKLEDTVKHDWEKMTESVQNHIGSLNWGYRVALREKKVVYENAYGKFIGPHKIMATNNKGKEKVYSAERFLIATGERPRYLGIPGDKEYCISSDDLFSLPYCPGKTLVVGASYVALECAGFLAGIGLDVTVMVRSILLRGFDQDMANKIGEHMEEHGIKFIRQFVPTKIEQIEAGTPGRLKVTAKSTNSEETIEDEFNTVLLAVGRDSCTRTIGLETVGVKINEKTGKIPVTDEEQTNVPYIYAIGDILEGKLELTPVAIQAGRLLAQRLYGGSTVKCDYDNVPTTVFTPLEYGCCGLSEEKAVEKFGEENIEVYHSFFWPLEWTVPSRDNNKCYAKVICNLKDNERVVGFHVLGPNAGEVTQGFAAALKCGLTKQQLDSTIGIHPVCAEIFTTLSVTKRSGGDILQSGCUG
Experiment: qHTS Assay for Inhibitors of Mammalian Selenoprotein Thioredoxin Reductase 1 (TrxR1): qHTS; note: nearly all actives have a fitted effect of over 65% in size
Conditions: recombinant rTrxR1, NADPH fluorescence consumption, selenite substrate; series mostly up to 114 µM; activity change, negative = inhibition: at the top concentration
How it was run: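 Rat TrxR1 (90 nM in the dispensed reagent) was pre-reduced with 400 uM NADPH for 5 min at room temperature, then incubated with compound for 15 min. After 400 uM selenite was added, NADPH fluorescence (Ex 340/Em 450 nm) was followed for 8 min.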
% is set by controls: 0 for no effect and ±100 for the full control effect; potency is the fitted concentration of half-maximal effect; tags give direction and shape of the fitted curve.

Question: `COc1ccc(NS(=O)(=O)c2ccc(NC(=S)NC(=O)/C=C/c3ccc(C)cc3)cc2)nn1` was tested. Which Potency did it give?
Answer: inconclusive: 79.4 µM [inhibitor, single point]

Question: How did the Potency turn out when `CC1(C)Cc2c(C#N)c(NCCN3CCOCC3)nc(-c3ccco3)c2CO1` was run?
Answer: inconclusive: 20 µM [inhibitor, full curve]

Question: How did the Potency turn out when `Cc1ccc(C(=O)CSC2=C(C#N)C(c3ccco3)CC(=O)N2)c(C)c1` (stereo not drawn) was run?
Answer: inconclusive: 28.2 µM [inhibitor, single point]

Question: How did the Potency turn out when `Cc1cccc(C(=O)n2nc(C)c(S(=O)(=O)N3CCOCC3)c2C)c1` was run?
Answer: inconclusive: 28.2 µM [inhibitor, single point]

Question: How did the Potency turn out when `CC1(C)CC=C(NNC(=O)c2cccnc2)C(=O)C1` was run?
Answer: inconclusive: 50.1 µM [inhibitor, partial curve]

Question: How did the Potency turn out when `CC1(C)CC(=O)C2=C(C1)N(c1ccc(F)cc1)C(N)=C(C#N)C2c1cccs1` (stereo not drawn) was run?
Answer: inconclusive: 11.2 µM [inhibitor, full curve]

Question: How did the “activity change, negative = inhibition” value turn out when `O=C(Nc1cccc(Cl)c1)N1CC2CCCN2c2ccccc21` (stereo not drawn) was run?
Answer: inactive: 21.6% [at 57.1 µM]

Question: `CC1CCc2c(sc(NC(=S)NC(=O)c3ccccc3)c2C#N)C1` (stereo not drawn) was tested. Which “activity change, negative = inhibition” value did it give?
Answer: inactive: -17.2%

Question: For `CN(C)CCC(=O)c1ccc(F)cc1`, which Potency is on record?
Answer: active: 1.12 µM

Question: With `CCN(CC)c1ccc(/C=C/c2sc3ccccc3[n+]2CCCCI)cc1` as the compound, how does the Potency read?
Answer: inconclusive: 56.2 µM [inhibitor, partial curve, poor fit]

Question: With `N#CCCCN1C(=O)C(=C(C#N)C#N)c2ccccc21` as the compound, how does the Potency read?
Answer: active: 12.6 µM

Question: How did the “activity change, negative = inhibition” value turn out when `Cc1ccc(C)c(N2CCN(C(=O)Cc3c(C(=O)O)c(C)cn3C)CC2)c1` was run?
Answer: inactive: 19.2% [at 57.1 µM]

Question: With `CCCC(O)(CCN1CCOCC1)c1ccc(Cl)cc1` (stereo not drawn) as the compound, how does the Potency read?
Answer: inconclusive: 15.8 µM [inhibitor, full curve]

Question: `O=C(NNC(=S)Nc1ccccc1)c1cc(-c2cccnc2)nc2ccccc12` was tested. Which Potency did it give?
Answer: inconclusive: 15.8 µM [inhibitor, partial curve, poor fit]

Question: How did the “activity change, negative = inhibition” value turn out when `CCCCC1=CC2=CC(=O)C(C)(OC(=O)CC)C(=O)C2=CN1Cc1ccc2c(c1)OCO2` (stereo not drawn) was run?
Answer: inactive: 20.6% [at 57.1 µM]

Question: With `O=[N+]([O-])c1cc(S(=O)(=O)N2CCOCC2)ccc1NS(=O)(=O)c1ccccc1` as the compound, how does the Potency read?
Answer: inconclusive: 25.1 µM [inhibitor, partial curve, poor fit]

Question: How did the Potency turn out when `CCOc1cccc(C2C(C(=O)c3ccco3)=C(O)C(=O)N2c2nnc(C)s2)c1` (stereo not drawn) was run?
Answer: inconclusive: 56.2 µM [inhibitor, single point]

Question: For `Cn1ccnc1C(=O)c1ccc(NN)c([N+](=O)[O-])c1`, which Potency is on record?
Answer: inconclusive: 17.8 µM [inhibitor, single point]

Question: Which “activity change, negative = inhibition” value does the source give for `Cc1ccc2c(=O)cc(C(=O)NCc3ccccc3)oc2c1` here?
Answer: inactive: 14.6%

Question: `CCOc1ccc2nc(N3CCN(C(=O)c4ccco4)CC3)sc2c1` was tested. Which “activity change, negative = inhibition” value did it give?
Answer: inactive: 25.8% [at 57.1 µM]

Question: `CCOC(=O)C1CCC(CN(Cc2ccccc2)S(=O)(=O)c2ccc([N+](=O)[O-])cc2)CC1` (stereo not drawn) was tested. Which Potency did it give?
Answer: inconclusive: 39.8 µM [inhibitor, partial curve]

Question: With `CC(=O)/C=C/c1ccc(C)o1` as the compound, how does the Potency read?
Answer: inconclusive: 17.8 µM [inhibitor, partial curve]

Question: Which Potency does the source give for `NC(=S)c1cc2ccc(O)cc2oc1=O` here?
Answer: inconclusive: 89.1 µM [inhibitor, single point]

Question: `CCOC(=O)Nc1ccc2c(C)cc(=O)oc2c1` was tested. Which Potency did it give?
Answer: inconclusive: 39.8 µM [inhibitor, single point]

Question: `O=C(NC1CC(=O)N(c2cccc(F)c2)C1)c1ccc2c(c1)OCO2` (stereo not drawn) was tested. Which “activity change, negative = inhibition” value did it give?
Answer: inactive: -0.86% [at 57.1 µM]

Question: With `CN(Cc1ccco1)C(=O)CSc1nn2c(=O)c(C(C)(C)C)nnc2s1` as the compound, how does the Potency read?
Answer: inconclusive: 79.4 µM [inhibitor, partial curve]

Question: Which Potency does the source give for `Cc1cc2cc(CNC(=O)c3ccc(Br)o3)ccc2[nH]1` here?
Answer: inconclusive: 25.1 µM [inhibitor, single point]

Question: `O=[N+]([O-])c1ccc(/C=N/Nc2nc(N3CCCC3)nc(N3CCCC3)n2)o1` was tested. Which “activity change, negative = inhibition” value did it give?
Answer: inactive: -59.1% [at 57.1 µM]

Question: With `O=S1(=O)c2ccc(Br)cc2N2CC[C@H](C2)N1Cc1ccc(Cl)cc1` as the compound, how does the Potency read?
Answer: inconclusive: 31.6 µM [inhibitor, single point]

Question: For `CCCN(CCC)CCCNC(=O)CN1C(=O)CSc2ccc(S(=O)(=O)N3CCOCC3)cc21`, which Potency is on record?
Answer: inconclusive: 50.1 µM [inhibitor, partial curve, poor fit]

Question: For `O=C(Nc1ccc2c(c1)CN(Cc1ccco1)CC2)C1CCCO1` (stereo not drawn), which Potency is on record?
Answer: inconclusive: 70.8 µM [inhibitor, single point]

Question: Which “activity change, negative = inhibition” value does the source give for `O=c1c2ccc(Cl)cc2nc(-c2cccc(C(F)(F)F)c2)n1O` here?
Answer: inactive: -4.74%

Question: `CCOc1ccccc1CNC(=O)c1ccc(CS(=O)Cc2cccc(Cl)c2)o1` (stereo not drawn) was tested. Which Potency did it give?
Answer: inconclusive: 17.8 µM [inhibitor, full curve]

Question: Which Potency does the source give for `Cc1ccc(-c2csc3nc(C)n(-n4c(C)ccc4C)c(=O)c23)o1` here?
Answer: active: 17.8 µM

Question: `COC(=O)c1ccccc1NC(=O)c1ccc2c(c1)C(=O)N(Cc1ccco1)C2=O` was tested. Which “activity change, negative = inhibition” value did it give?
Answer: inactive: 4.76%

Question: How did the Potency turn out when `CCOC(=O)C1=CN(Cc2ccco2)S(=O)(=O)N(C)C1c1ccccc1` (stereo not drawn) was run?
Answer: inconclusive: 50.1 µM [inhibitor, partial curve]

Question: For `O=S(=O)(NCC(O)COCc1ccco1)c1cccs1` (stereo not drawn), which Potency is on record?
Answer: inconclusive: 20 µM [inhibitor, single point]

Question: With `CC(C)Cc1cc(-c2ccco2)c(C#N)c(N)n1` as the compound, how does the Potency read?
Answer: inconclusive: 25.1 µM [inhibitor, partial curve, poor fit]

Question: How did the “activity change, negative = inhibition” value turn out when `COc1ccc(N=C2C(=O)N3c4c(cccc42)C(C)=CC3(C)C)cc1` was run?
Answer: inactive: -2.08%

Question: For `O=C(NC(=S)Nc1nc(-c2cccc([N+](=O)[O-])c2)cs1)c1ccccc1Cl`, which “activity change, negative = inhibition” value is on record?
Answer: inactive: 13.2% [at 57.1 µM]

Question: For `O=[N+]([O-])c1ccc(N2CCN(c3ccc(F)cc3)CC2)cc1`, which “activity change, negative = inhibition” value is on record?
Answer: inactive: 9.15%

Question: With `COc1cccc(N2C(=O)CN(Cc3cc(OC)c(OC)c(OC)c3)C2=S)c1` as the compound, how does the “activity change, negative = inhibition” value read?
Answer: inactive: 16.8%

Question: With `CCC(C)[C@H]1CNCCN1CCc1cccc(F)c1` (stereo partly drawn) as the compound, how does the “activity change, negative = inhibition” value read?
Answer: inactive: -3.67% [at 57.1 µM]

Question: For `O=C(Nc1ccc(O)c(-c2nc3ccccc3o2)c1)C1(c2ccc(Cl)cc2)CCCC1`, which “activity change, negative = inhibition” value is on record?
Answer: inactive: 1.04%

Question: With `COc1cc(C)c(Cc2cnc(N)nc2N)cc1OC` as the compound, how does the Potency read?
Answer: inconclusive: 79.4 µM [inhibitor, partial curve, poor fit]

Question: `COc1cc(C(C2C(=O)CC(C)(C)CC2=O)C2C(=O)CC(C)(C)CC2=O)cc(OC)c1OC` was tested. Which Potency did it give?
Answer: inconclusive: 28.2 µM [inhibitor, single point]

Question: For `Cc1cc(C)c2c(NC(=O)CCl)nn(C)c2n1`, which Potency is on record?
Answer: inconclusive: 25.1 µM [inhibitor, single point]

Question: `CCOC(=O)C1=C(C)N=c2s/c(=C\c3ccc(O)c([N+](=O)[O-])c3)c(=O)n2C1c1ccccc1OC` (stereo not drawn) was tested. Which Potency did it give?
Answer: inconclusive: 89.1 µM [inhibitor, single point]

Question: `O=c1c2cc3c(cc2nc2sc(Nc4ccccc4)nn12)OCO3` was tested. Which “activity change, negative = inhibition” value did it give?
Answer: inactive: 11.6%

Question: How did the Potency turn out when `Cc1nc(N=Nc2cc(S(=O)(=O)O)c3cc([N+](=O)[O-])cc(S(=O)(=O)O)c3c2)c(COP(=O)(O)O)c(C=O)c1O` was run?
Answer: inconclusive: 28.2 µM [inhibitor, full curve] and inconclusive: 189 nM [inhibitor, full curve, poor fit]

Question: For `COc1cccc(-c2nc3c(c(SCC(=O)N4CCOCC4)n2)Cc2c(CO)cnc(C)c2O3)c1`, which Potency is on record?
Answer: inconclusive: 28.2 µM [inhibitor, partial curve]

Question: With `CCOc1ccc(NC(=O)CCC(=O)N/N=C/c2ccc([N+](=O)[O-])s2)cc1` as the compound, how does the Potency read?
Answer: inconclusive: 89.1 µM [inhibitor, single point]

Question: With `CN1CCc2c(sc(/N=C/c3ccco3)c2C(N)=O)C1` as the compound, how does the Potency read?
Answer: inconclusive: 89.1 µM [inhibitor, single point]

Question: Which Potency does the source give for `COc1ccc(-c2ccc(/C=N/NC(=O)Cc3nnc(N)s3)o2)cc1Cl` here?
Answer: inconclusive: 12.6 µM [inhibitor, partial curve]

Question: Which “activity change, negative = inhibition” value does the source give for `Cc1[nH]nc2c1C1(C(=O)N(Cc3ccc(Cl)cc3)c3ccccc31)C(C#N)=C(N)O2` (stereo not drawn) here?
Answer: inactive: 21.6%

Question: With `N#Cc1nc(-c2ccco2)oc1N1CCC(C(N)=O)CC1` as the compound, how does the Potency read?
Answer: inconclusive: 100 µM [inhibitor, single point]

Question: Which “activity change, negative = inhibition” value does the source give for `CC(=O)Nc1ccc(NC(=O)c2ccc(N(C)S(=O)(=O)c3ccc(C)cc3)cc2)cc1` here?
Answer: inactive: 20.6%

Question: For `CCNC(=S)N/N=C/c1ccco1`, which Potency is on record?
Answer: inconclusive: 39.8 µM [inhibitor, single point]

Question: `c1ccc(-c2ccc(-c3nc(-c4ccccn4)no3)cc2)cc1` was tested. Which “activity change, negative = inhibition” value did it give?
Answer: inactive: 42.1%

Question: Which Potency does the source give for `COCCCn1c(SCC(=O)N2CCCCC2C)nnc1-c1ccco1` (stereo not drawn) here?
Answer: inconclusive: 25.1 µM [inhibitor, single point]

Question: How did the Potency turn out when `O=C(NC(=S)NCc1ccccc1Cl)c1cccs1` was run?
Answer: inconclusive: 56.2 µM [inhibitor, partial curve]

Question: For `CCCCn1c(NC(=O)c2ccc(Br)o2)c(S(=O)(=O)c2ccccc2)c2nc3ccccc3nc21`, which Potency is on record?
Answer: inconclusive: 89.1 µM [inhibitor, partial curve, poor fit]

Question: `COc1cccc2oc(-c3ccco3)cc(=O)c12` was tested. Which Potency did it give?
Answer: inconclusive: 5.62 µM [inhibitor, full curve, poor fit]

Question: How did the “activity change, negative = inhibition” value turn out when `O=C(Nc1ccccc1-c1nnc(SCc2ccccc2Cl)o1)c1ccccc1` was run?
Answer: inactive: 26%

Question: `Cc1ccc(N2C(=O)C3C4C=CC(CNC(=S)N5CCN(c6ccccc6)CC5)(O4)C3C2=O)cc1` (stereo not drawn) was tested. Which Potency did it give?
Answer: active: 20 µM

Question: `CCc1nc(N2CCN(C(=O)CCl)CC2)c2c3c(sc2n1)CC(C)CC3` (stereo not drawn) was tested. Which Potency did it give?
Answer: active: 22.4 µM

Question: For `CCOc1ccc(NC(=O)CSc2nc3[nH]ncc3c(=O)n2-c2ccccc2OC)cc1`, which Potency is on record?
Answer: inconclusive: 39.8 µM [inhibitor, partial curve, poor fit]

Question: With `CCC1(O)CC2CN(CCc3c([nH]c4ccccc34)[C@@](C(=O)OC)(c3cc4c(cc3OC)N(C=O)C3[C@]45CCN4CC=C[C@@](CC)([C@@H](OC(C)=O)[C@]3(O)C(=O)OC)[C@H]45)C2)C1` (stereo partly drawn) as the compound, how does the Potency read?
Answer: inconclusive: 12.6 µM [inhibitor, partial curve]
